# Assay results: PubChem BioAssay AID504339 (National Center for Advancing Translational Sciences (NCATS), 2011)
# “And” between values parts separate entries of the source, which are not always exact repeats. Equal values may be shown once. About 17,000 (4.4%) of roughly 390,000 compounds were called active. Inconclusive means that the source gave no clear call. Such entries were picked first, then a sample of the others. Calls follow the shape of the dose curve; as a rule, active = well fitted inhibition curve with a large enough effect; inconclusive = small, poorly fitted or top-dose-only effect; inactive = no such curve, though single readings can be large or run the other way. A potency beside an inconclusive call is a rough fit, not a confirmed value.
# Molecular target: Lysine-specific demethylase 4A (Homo sapiens) (UniProt O75164)
# Assay: qHTS Assay for Inhibitors of JMJD2A-Tudor Domain; also: nearly all actives have a fitted effect of over 50% in size
# Conditions: AlphaScreen JMJD2A-Tudor / H3K4me3 peptide binding; activity change, negative = inhibition: at 114 µM (top of the series)
# % is scaled to controls: 0 for no effect and ±100 for the full control effect; potency is read from the fitted curve at half-maximal effect; tags tell the direction and shape of the fitted curve.
# UniProt O75164, sequence (O75164 whole entry, looked up, the tested form may be a part): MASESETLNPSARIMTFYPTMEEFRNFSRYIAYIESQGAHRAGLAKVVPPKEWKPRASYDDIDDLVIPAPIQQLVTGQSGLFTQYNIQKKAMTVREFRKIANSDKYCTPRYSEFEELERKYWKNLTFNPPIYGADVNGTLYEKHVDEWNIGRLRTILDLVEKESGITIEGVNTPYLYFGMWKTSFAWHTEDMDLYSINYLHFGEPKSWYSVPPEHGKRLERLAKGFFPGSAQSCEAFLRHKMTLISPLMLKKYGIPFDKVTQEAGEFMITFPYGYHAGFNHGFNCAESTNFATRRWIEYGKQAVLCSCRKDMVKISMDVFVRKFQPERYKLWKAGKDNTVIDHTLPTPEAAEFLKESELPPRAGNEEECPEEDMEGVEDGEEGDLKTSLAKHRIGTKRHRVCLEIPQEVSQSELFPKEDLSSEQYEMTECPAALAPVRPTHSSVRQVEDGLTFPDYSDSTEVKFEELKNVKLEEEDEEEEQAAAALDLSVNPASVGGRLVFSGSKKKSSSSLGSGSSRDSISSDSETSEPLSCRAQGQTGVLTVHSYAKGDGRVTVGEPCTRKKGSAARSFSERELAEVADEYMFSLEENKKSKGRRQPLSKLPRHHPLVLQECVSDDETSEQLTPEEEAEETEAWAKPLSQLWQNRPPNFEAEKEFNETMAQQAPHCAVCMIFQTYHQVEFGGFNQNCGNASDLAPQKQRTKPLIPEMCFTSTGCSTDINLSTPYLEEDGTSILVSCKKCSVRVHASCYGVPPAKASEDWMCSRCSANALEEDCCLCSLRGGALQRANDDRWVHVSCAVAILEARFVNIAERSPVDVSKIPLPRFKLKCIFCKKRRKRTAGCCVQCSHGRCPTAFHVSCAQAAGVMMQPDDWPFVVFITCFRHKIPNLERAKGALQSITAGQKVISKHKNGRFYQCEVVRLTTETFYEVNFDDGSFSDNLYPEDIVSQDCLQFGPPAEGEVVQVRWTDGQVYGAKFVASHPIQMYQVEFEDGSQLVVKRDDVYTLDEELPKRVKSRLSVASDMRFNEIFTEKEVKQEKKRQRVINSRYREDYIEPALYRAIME
Structure (SMILES),Potency,"activity change, negative = inhibition"
Cc1ccc(C(=O)COC(=O)c2cnccn2)cc1[N+](=O)[O-],"inconclusive: 15.8 µM [inhibitor, partial curve, poor fit]",
C[n+]1c(-c2ccccc2)cc2c(=Cc3ccccc3)c3ccccc3n21,active: 39.8 µM,
CC(=O)OC(C(=O)N1CCN(c2ccc(F)cc2)CC1)c1ccccc1 (configuration not stated),inactive,
CCN(CC)c1ccc(CN2CCC(C(=O)NCc3ccc(C)cc3)CC2)cc1,active: 20 µM,
CC(=O)N1CCCC1c1nc2ccccc2n1Cc1cc(C)ccc1C (configuration not stated),inactive,
CCOc1cc(CN2CCN(c3cccc(C(F)(F)F)c3)CC2)ccc1OC,active: 8.91 µM,
Cc1ccc(-c2cc(C(=O)Nc3ccc(S(=O)(=O)Nc4nccs4)cc3)c3ccccc3n2)c(C)c1,"inconclusive: 20 µM [inhibitor, full curve]",
CCOc1ccc(CC(=O)Nc2sc(Cc3ccccc3)cc2C(N)=O)cc1OCC,"inconclusive: 14.1 µM [inhibitor, full curve, poor fit]",
CC(C)C[C@H](NC(=O)c1nc[nH]c1C(=O)N1CCN(c2ccccc2)CC1)C(=O)OCc1ccccc1,"inconclusive: 44.7 µM [inhibitor, partial curve]",
Cc1coc2c(C)c3oc(=O)c(CCC(=O)NCCC(=O)O)c(C)c3cc12,"inconclusive: 56.2 µM [inhibitor, partial curve]",
CCOC(=O)N1CCC(NC(=S)Nc2ccc3nc(N4CCN(CC)CC4)cc(C)c3c2)CC1,,inactive: -17.6% [at 11.4 µM]
CCc1ccc2c(c1)C(c1cccs1)=NNC(c1cccnc1)=N2,"inconclusive: 56.2 µM [inhibitor, partial curve]",
C=CCn1c(SCC(C)=O)nnc1-c1cc(-c2ccccc2)sc1N,"inconclusive: 22.4 µM [inhibitor, full curve]",
O=C(Nn1c(-c2ccccc2)nc2ccccc2c1=O)c1ccco1,inactive,
COC(=O)C1=C(C)N(Cc2ccc(C)cc2)C(=O)/C1=C\c1cc(OC)c(OC)c(OC)c1,active: 11.2 µM,
c1ccc(C2[C@H]3CN(Cc4cccnc4)[C@H](c4ccccc4)C34CC2(c2ccccc2)C4)cc1 (some centres not stated),"inconclusive: 35.5 µM [inhibitor, full curve, poor fit]",
CCc1ccc(C(=O)c2cn(CC(=O)Nc3cccc(C)c3C)c3nc(C)ccc3c2=O)cc1,"inconclusive: 6.31 µM [inhibitor, full curve]",
O=C(/C=C/c1ccco1)NC1=NCCS1,"inconclusive: 35.5 µM [inhibitor, single point]",
Cn1c(=O)c(C(=O)CN2CCc3ccccc32)c(N)n(Cc2ccccc2)c1=O,active: 50.1 µM,
COc1cc(OC)c(NC(=O)CN(C)S(=O)(=O)c2ccc3c(c2)CCCC(=O)N3)cc1Cl,inactive,
N#Cc1nc(Nc2cccc([N+](=O)[O-])c2)nc(NC2CCCC2)n1,"inconclusive: 50.1 µM [inhibitor, partial curve]",
COc1ccc(Nc2nnc(-c3ccncc3)s2)cc1Cl,inactive,
Cn1cccc1Cc1nnc(SCC(=O)Nc2ccc(F)cc2)n1-c1ccc(F)cc1,"inconclusive: 17.8 µM [inhibitor, full curve]",

Structure (SMILES),Potency,"activity change, negative = inhibition"
NC(=O)c1ccc(Cn2c(C(=O)c3ccc(Cl)cc3)c3ccccc3[n+]2[O-])cc1,"inconclusive: 8.91 µM [inhibitor, partial curve]",
CCOc1ccc(NC(=O)CC2C(=O)N(c3cccc(C)c3)C(=O)N2CCC2=CCCCC2)cc1 (configuration not stated),"inconclusive: 14.1 µM [inhibitor, full curve, poor fit]",
CCN(CC)c1ccc(CN(C(=O)c2cccs2)C2CCS(=O)(=O)C2)cc1 (configuration not stated),"inconclusive: 44.7 µM [inhibitor, partial curve]",
CS(=O)(=O)N1CCN(c2ccccc2NC(=O)c2ccc([N+](=O)[O-])o2)CC1,active: 3.16 µM,
CCOC(=O)Cc1nnc(NC(=O)C(CC)Sc2nnc3c4ccccc4n(C)c3n2)s1 (configuration not stated),inactive,
COc1cc(/C=N/NC(=O)C2=NNC(=O)C2C)ccc1O (configuration not stated),"inconclusive: 28.2 µM [inhibitor, single point]",
Cc1ccc(CN2CC(C(=O)N3CCN(S(=O)(=O)c4cccc(F)c4)CC3)CC2=O)cc1 (configuration not stated),inactive,
COc1ccc(C(=O)Oc2ccc(C3NC(=O)c4c(sc5c4CCN(C)C5)N3)cc2OC)cc1 (configuration not stated),active: 56.2 µM,
Cc1ccc(Cl)cc1N1CCN(C(=O)c2cc(S(=O)(=O)N3CCCCC3)cn2C)CC1,"inconclusive: 39.8 µM [inhibitor, partial curve]",
CCCCCC1CC1C(=O)N/N=C/c1ccc(N(C)C)cc1 (configuration not stated),"inconclusive: 17.8 µM [inhibitor, partial curve]",
Cc1c(O)cc2c(c1O)C(=O)CC(c1ccc(O)cc1)O2 (configuration not stated),"inconclusive: 44.7 µM [inhibitor, partial curve]",
COc1ccc(C2CC(=O)Oc3c(C(CCN4CCCCC4)c4ccc(N(C)C)cc4)c(OC)cc(OC)c32)cc1 (configuration not stated),active: 28.2 µM and active: 15.8 µM,
COc1ccc(C(=O)NCC(c2ccc3c(c2)OCO3)N2CCN(C)CC2)cc1OC (configuration not stated),inactive,
COC(=O)CCC(=O)Nc1ccc(N=Nc2ccccc2)cc1,"inconclusive: 56.2 µM [inhibitor, partial curve]",
CSc1ncc2[nH]c(C(O)c3ccccc3)nc2n1 (configuration not stated),"inconclusive: 39.8 µM [inhibitor, single point]",
O=C(/C=C/c1ccccc1)Nn1cnc2ccccc2c1=O,"inconclusive: 112 µM [inhibitor, partial curve, poor fit]",
CCN(CC)P(=O)(Nc1ccc(Br)cc1)c1c(C)nn(CCC#N)c1NC(=O)c1ccc(Cl)cc1 (configuration not stated),inactive,
Cn1c(N=Nc2ccc(N3CCOCC3)cc2)[n+](C)c2ccccc21,"inconclusive: 50.1 µM [inhibitor, partial curve]",
Cc1ccccc1NC(=O)CC1C(=O)Nc2ccccc2N1CC(=O)N(C)C1CCS(=O)(=O)C1 (configuration not stated),inactive,
CC(=O)Nc1ccc(NC(=O)COc2ccc(Br)cc2C)cc1,inactive,
Cc1cc(-c2c(C)[nH]n(-c3ccc(Cl)cc3)c2=O)n(-c2ccc(Cl)cc2)n1,inactive,
COc1ccc(N2CCN(Cc3nc4sc(C)c(C)c4c(=O)[nH]3)CC2)cc1,"inconclusive: 11.2 µM [inhibitor, full curve, poor fit]",
COc1ccc(NC(=O)C(=O)N2N=C3CCCCC3C2(O)C(F)(F)F)cc1 (configuration not stated),"inconclusive: 39.8 µM [inhibitor, single point]",

Structure (SMILES),Potency,"activity change, negative = inhibition"
COC(=O)c1cnn(-c2ccccc2)c1/C=N/NC(=S)Nc1ccccc1,"inconclusive: 79.4 µM [inhibitor, partial curve]",
CC(C)CNc1cc(NC2CCCCC2)c2c3c(onc13)-c1ccccc1C2=O,active: 28.2 µM,
O=[N+]([O-])c1ccc(-c2c[nH]c(=S)[nH]2)cc1,"inconclusive: 28.2 µM [inhibitor, single point]",
COc1ccccc1C1C(C(C)=O)=C(C)N=c2s/c(=C\c3cc(OC)c(OC)c(OC)c3)c(=O)n21 (configuration not stated),"inconclusive: 44.7 µM [inhibitor, partial curve]",
C[C@@]12CC[C@H]3OC(=O)C=C3C1CC[C@@]13CC(CCC12)[C@](CO)(O[C@H]1O[C@H](CO)[C@@H](O)[C@H](O)[C@H]1O)C3 (some centres not stated),inactive,
C/C(=N\Nc1ccc(Cl)cc1)c1ccncc1,"inconclusive: 79.4 µM [inhibitor, partial curve]",
S=c1[nH]nc(-c2ccccn2)n1/N=C/c1ccc(Cl)cc1,active: 5.62 µM,
CC(C)(C)NC(=O)C(c1ccncc1)N(C(=O)Cn1nnc(-c2ccc(F)cc2)n1)c1ccccc1 (configuration not stated),"inconclusive: 20 µM [inhibitor, single point]",
Cc1ccc(CCNC(=O)c2ccc(CSc3nc4ccncc4n3Cc3ccc(F)cc3)cc2)cc1,inactive,
Cc1ccsc1/C=C1/C(=O)NN(c2ccccc2)C1=O,"inconclusive: 56.2 µM [inhibitor, partial curve, poor fit]",
O=C(Nc1cc(Sc2ccccn2)cc([N+](=O)[O-])c1)c1cccc(Cl)c1,"inconclusive: 44.7 µM [inhibitor, single point]",
CC1=Nc2cc(C(=O)NCc3ccco3)ccc2Sc2ccc(C)cc21,"inconclusive: 35.5 µM [inhibitor, partial curve]",
CN(C)c1ccc(S(=O)(=O)NCC(=O)OCC(=O)Nc2cc(Cl)cc(Cl)c2)cc1[N+](=O)[O-],"inconclusive: 22.4 µM [inhibitor, full curve]",
Cc1nccn1CC(=O)N/N=C/c1ccccc1O,active: 56.2 µM,
COc1cc(/C=C2\CC/C(=C\c3cc(OC)c(OC)c(OC)c3)C2=O)cc(OC)c1OC,"inconclusive: 20 µM [inhibitor, full curve]",
C#CCN(Cc1ccccc1)S(=O)(=O)C=C,inactive,
COc1ccccc1N1CCN(/N=C/c2ccc([N+](=O)[O-])cc2)CC1,active: 28.2 µM,
CCOC(=O)c1sc(NC(=O)CSc2nnc(Cc3ccccc3)o2)c(C#N)c1C,active: 56.2 µM,
COc1ccc(NS(=O)(=O)c2cc(NC(=O)c3ccc(=O)[nH]c3)ccc2N2CCCC2)cc1,"inconclusive: 50.1 µM [inhibitor, partial curve]",
CCCCOCC(O)CCc1n[nH]c(=S)n1-c1ccccc1 (configuration not stated),"inconclusive: 39.8 µM [inhibitor, single point]",
COc1ccc(NC2c3ccccc3C(=O)N2c2ccccn2)cc1Cl (configuration not stated),"inconclusive: 25.1 µM [inhibitor, full curve, poor fit]",
